Data from article PMC4265154, “A reversible Renilla luciferase protein complementation assay for rapid identification of protein–protein interactions reveals the existence of an interaction network involved in xyloglucan biosynthesis in the plant Golgi apparatus” (Journal of Experimental Botany, 2014).
No constants are given. Whether binding was seen depends on the method and setting. For part of these data: In cells and extracts the contact can be indirect. Sequences can lack the tags named with a protein. Some results given as binding are weak or reduced against the parent protein; the word gives no strength.

T1: MUR3 fused to TF–Cub or NubG (split-ubiquitin assay) (Arabidopsis thaliana) (UniProt Q7XJ98)
T1 sequence: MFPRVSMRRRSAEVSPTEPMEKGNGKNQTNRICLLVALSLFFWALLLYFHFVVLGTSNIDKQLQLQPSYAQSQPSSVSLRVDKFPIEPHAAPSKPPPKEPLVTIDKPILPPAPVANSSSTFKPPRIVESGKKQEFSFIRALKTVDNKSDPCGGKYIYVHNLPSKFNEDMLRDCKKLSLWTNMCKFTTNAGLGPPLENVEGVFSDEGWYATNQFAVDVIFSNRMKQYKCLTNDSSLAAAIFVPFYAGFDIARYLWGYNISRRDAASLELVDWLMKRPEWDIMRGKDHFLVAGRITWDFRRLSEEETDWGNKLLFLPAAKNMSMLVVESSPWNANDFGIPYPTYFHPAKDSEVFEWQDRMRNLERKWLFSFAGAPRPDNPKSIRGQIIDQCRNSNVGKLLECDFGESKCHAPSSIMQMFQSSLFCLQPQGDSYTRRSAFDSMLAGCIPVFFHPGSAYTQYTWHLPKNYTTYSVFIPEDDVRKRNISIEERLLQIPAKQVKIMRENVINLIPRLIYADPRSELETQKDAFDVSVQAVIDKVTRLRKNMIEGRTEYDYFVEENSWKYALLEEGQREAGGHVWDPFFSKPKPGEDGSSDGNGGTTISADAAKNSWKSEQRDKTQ

T2: FUT1 fused to TF–Cub or NubG (split-ubiquitin assay) (Arabidopsis thaliana) (UniProt Q9SWH5)
T2 sequence: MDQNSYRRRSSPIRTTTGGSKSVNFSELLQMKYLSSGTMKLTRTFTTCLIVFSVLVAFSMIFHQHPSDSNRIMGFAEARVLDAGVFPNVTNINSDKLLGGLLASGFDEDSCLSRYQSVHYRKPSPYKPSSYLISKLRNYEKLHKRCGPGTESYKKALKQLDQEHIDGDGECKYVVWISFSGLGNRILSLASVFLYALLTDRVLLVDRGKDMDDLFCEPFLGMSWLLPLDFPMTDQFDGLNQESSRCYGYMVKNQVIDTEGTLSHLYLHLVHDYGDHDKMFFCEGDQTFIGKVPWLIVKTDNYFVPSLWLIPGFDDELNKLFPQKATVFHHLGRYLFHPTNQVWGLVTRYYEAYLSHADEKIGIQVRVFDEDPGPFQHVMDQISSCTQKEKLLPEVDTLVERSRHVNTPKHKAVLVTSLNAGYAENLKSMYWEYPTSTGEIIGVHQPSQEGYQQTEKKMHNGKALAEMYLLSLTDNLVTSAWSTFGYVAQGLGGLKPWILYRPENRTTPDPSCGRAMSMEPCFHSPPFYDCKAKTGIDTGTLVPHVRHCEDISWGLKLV

T3: IRX14 fused to hRluc fragment [F1] or [F2] (Arabidopsis thaliana) (UniProt Q8L707)
T3 sequence: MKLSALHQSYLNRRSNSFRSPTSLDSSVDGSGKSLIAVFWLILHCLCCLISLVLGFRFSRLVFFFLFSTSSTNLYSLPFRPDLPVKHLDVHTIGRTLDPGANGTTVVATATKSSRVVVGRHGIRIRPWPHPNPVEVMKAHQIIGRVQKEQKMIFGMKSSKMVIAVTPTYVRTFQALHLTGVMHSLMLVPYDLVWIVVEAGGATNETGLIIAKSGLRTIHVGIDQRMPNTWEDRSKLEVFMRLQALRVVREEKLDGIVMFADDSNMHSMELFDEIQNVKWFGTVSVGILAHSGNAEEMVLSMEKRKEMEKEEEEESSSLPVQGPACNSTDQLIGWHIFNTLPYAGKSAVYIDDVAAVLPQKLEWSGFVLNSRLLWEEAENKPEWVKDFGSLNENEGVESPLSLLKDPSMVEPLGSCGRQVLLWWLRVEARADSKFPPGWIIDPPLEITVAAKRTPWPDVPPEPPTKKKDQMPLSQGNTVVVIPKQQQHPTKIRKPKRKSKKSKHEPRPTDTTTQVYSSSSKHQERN

T4: IRREGULAR XYLEM9 (IRX9) fused to hRluc fragment [F1] or [F2] (Arabidopsis thaliana) (UniProt Q9ZQC6)
T4 sequence: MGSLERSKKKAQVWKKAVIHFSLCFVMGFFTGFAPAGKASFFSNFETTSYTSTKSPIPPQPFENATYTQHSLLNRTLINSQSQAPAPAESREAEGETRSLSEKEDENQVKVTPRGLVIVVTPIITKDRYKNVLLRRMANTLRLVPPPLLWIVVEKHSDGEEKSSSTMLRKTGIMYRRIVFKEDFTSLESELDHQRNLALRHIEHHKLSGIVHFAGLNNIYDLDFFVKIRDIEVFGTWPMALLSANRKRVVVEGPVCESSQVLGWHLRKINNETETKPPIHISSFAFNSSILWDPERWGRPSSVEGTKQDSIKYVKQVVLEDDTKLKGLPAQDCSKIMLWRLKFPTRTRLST


What was measured:
[1] = target: T1, MUR3 fused to TF–Cub or NubG (split-ubiquitin assay) (Arabidopsis thaliana); test: two-hybrid; split-ubiquitin assay (DUALmembrane) in yeast NMY51: TF–Cub (bait) and NubG (prey) at the N-termini; growth on SD-His-Leu-Trp-Ade scored as interaction, X-gal overlay for β-galactosidase
[2] = target: T2, FUT1 fused to TF–Cub or NubG (split-ubiquitin assay) (Arabidopsis thaliana); test: as above
[3] = target: T3, IRX14 fused to hRluc fragment [F1] or [F2] (Arabidopsis thaliana); test: split reporter; Rluc-PCA: proteins with C-terminal hRluc[F1]-HA and hRluc[F2]-FLAG co-expressed with p19 in N. benthamiana leaves for 72 h (Agrobacterium OD600 0.2 each, p19 0.05); pooled leaf discs macerated in 0.5 M NaCl, 0.1 M potassium phosphate pH 7.4, 1 mM EDTA, 0.02% BSA, protease inhibitors; 10 uM coelenterazine-h, luminescence 30 s; compared with p19 alone
[4] = target: T4, IRREGULAR XYLEM9 (IRX9) fused to hRluc fragment [F1] or [F2] (Arabidopsis thaliana); test: as above

Binder | binding [1] | binding [2] | further results
XXT2 fused to TF–Cub or NubG (split-ubiquitin assay) (protein, UniProt O22775 1-461) MIERCLGAYRCRRIQRALRQLKVTILCLLLTVVVLRSTIGAGKFGTPEQDLDEIRQHFHARKRGEPHRVLEEIQTGGDSSSGDGGGNSGGSNNYETFDINKIFVDEGEEEKPDPNKPYTLGPKISDWDEQRSDWLAKNPSFPNFIGPNKPRVLLVTGSAPKPCENPVGDHYLLKSIKNKIDYCRLHGIEIFYNMALLDAEMAGFWAKLPLIRKLLLSHPEIEFLWWMDSDAMFTDMAFELPWERYKDYNLVMHGWNEMVYDQKNWIGLNTGSFLLRNNQWALDLLDTWAPMGPKGKIREEAGKVLTRELKDRPVFEADDQSAMVYLLATQRDAWGNKVYLESGYYLHGYWGILVDRYEEMIENYHPGLGDHRWPLVTHFVGCKPCGKFGDYPVERCLKQMDRAFNFGDNQILQIYGFTHKSLASRKVKRVRNETSNPLEMKDELGLLHPAFKAVKVQTNQV | binds | – | –
MUR3 fused to TF–Cub or NubG (split-ubiquitin assay) (protein, UniProt Q7XJ98 1-619) MFPRVSMRRRSAEVSPTEPMEKGNGKNQTNRICLLVALSLFFWALLLYFHFVVLGTSNIDKQLQLQPSYAQSQPSSVSLRVDKFPIEPHAAPSKPPPKEPLVTIDKPILPPAPVANSSSTFKPPRIVESGKKQEFSFIRALKTVDNKSDPCGGKYIYVHNLPSKFNEDMLRDCKKLSLWTNMCKFTTNAGLGPPLENVEGVFSDEGWYATNQFAVDVIFSNRMKQYKCLTNDSSLAAAIFVPFYAGFDIARYLWGYNISRRDAASLELVDWLMKRPEWDIMRGKDHFLVAGRITWDFRRLSEEETDWGNKLLFLPAAKNMSMLVVESSPWNANDFGIPYPTYFHPAKDSEVFEWQDRMRNLERKWLFSFAGAPRPDNPKSIRGQIIDQCRNSNVGKLLECDFGESKCHAPSSIMQMFQSSLFCLQPQGDSYTRRSAFDSMLAGCIPVFFHPGSAYTQYTWHLPKNYTTYSVFIPEDDVRKRNISIEERLLQIPAKQVKIMRENVINLIPRLIYADPRSELETQKDAFDVSVQAVIDKVTRLRKNMIEGRTEYDYFVEENSWKYALLEEGQREAGGHVWDPFFSKPKPGEDGSSDGNGGTTISADAAKNSWKSEQRDKTQ | binds | binds | –
IRX10-L fused to hRluc fragment [F1] or [F2] (protein, UniProt Q940Q8 1-415) MKLSSCVLIFLLCNTFSSISAFRLSRSQPTERISGSAGDVLEDDPVGRLKVFVYELPSKYNKKILQKDPRCLNHMFAAEIYMQRFLLSSPVRTLNPEEADWFYVPVYTTCDLTPNGLPLPFKSPRMMRSAIQLIASNWPYWNRTEGADHFFVVPHDFGACFHYQEEKAIGRGILPLLQRATLVQTFGQRNHVCLKEGSITVPPYAPPQKMQSHLIPEKTPRSIFVYFRGLFYDVGNDPEGGYYARGARAAVWENFKDNPLFDISTEHPTTYYEDMQRAIFCLCPLGWAPWSPRLVEAVIFGCIPVIIADDIVLPFADAIPWEDIGVFVDEKDVPYLDTILTSIPPEVILRKQRLLANPSMKQAMLFPQPAQPGDAFHQVLNGLARKLPHERSVYLRPGEKLLNWTAGPVADLKPW | – | – | binding [3]: no binding
XXT1 fused to TF–Cub or NubG (split-ubiquitin assay) (protein, UniProt Q9LZJ3 1-460) MIEKCIGAHRFRRLQRFMRQGKVTILCLVLTVIVLRGTIGAGKFGTPEKDIEEIREHFFYTRKRGEPHRVLVEVSSKTTSSEDGGNGGNSYETFDINKLFVDEGDEEKSRDRTNKPYSLGPKISDWDEQRRDWLKQNPSFPNFVAPNKPRVLLVTGSAPKPCENPVGDHYLLKSIKNKIDYCRIHGIEIFYNMALLDAEMAGFWAKLPLIRKLLLSHPEIEFLWWMDSDAMFTDMVFELPWERYKDYNLVMHGWNEMVYDQKNWIGLNTGSFLLRNSQWSLDLLDAWAPMGPKGKIREEAGKVLTRELKDRPAFEADDQSAMVYLLATEREKWGGKVYLESGYYLHGYWGILVDRYEEMIENHKPGFGDHRWPLVTHFVGCKPCGKFGDYPVERCLRQMDRAFNFGDNQILQMYGFTHKSLGSRRVKPTRNQTDRPLDAKDEFGLLHPPFKAAKLSTTTT | – | no binding | –
ARABINAN DEFICIENT1 (ARAD1) fused to hRluc fragment [F1] or [F2] (natural protein, Arabidopsis thaliana, UniProt Q6DBG8 1-447, looked up, Made in two forms, one with [F1]-HA and one with [F2]-FLAG; a chain carries one of the two; also called ARAD1-[F1]; ARAD1-[F2]; source: N. benthamiana leaves, transient expression (A. tumefaciens GV3101, with p19), in crude leaf macerate; not shown: hRluc[F1]; (Renilla luciferase residues 1-110) with HA, C-terminal, kept; hRluc[F2]; (Renilla luciferase residues 111-310) with FLAG, C-terminal, kept) MARKSSLLKRAAIAVVSVIAIYVILNASVSRSLPSSSDLPRQLIREDDDDEGRAPIQPRVRVYMYNLPKRFTYGLIEQHSIARGGIKKPVGDVTTLKYPGHQHMHEWYLFSDLNQPEVDRSGSPIVRVSDPADADLFYVPVFSSLSLIVNAGRPVEAGSGYSDEKMQEGLVEWLEGQEWWRRNAGRDHVIPAGDPNALYRILDRVKNAVLLVSDFGRLRPDQGSFVKDVVIPYSHRVNLFNGEIGVEDRNTLLFFMGNRYRKDGGKVRDLLFQVLEKEDDVTIKHGTQSRENRRAATKGMHTSKFCLNPAGDTPSACRLFDSIVSLCVPLIVSDSIELPFEDVIDYRKFSIFVEANAALQPGFLVQMLRKIKTKKILEYQREMKSVRRYFDYDNPNGAVKEIWRQVSHKLPLIKLMSNRDRRLVLRNLTEPNCSCLCTNQTGLITSI | – | – | binding [4]: no binding
